# Among all 270,000 compounds or so, about 5,800 (2.1%) were called active. The inconclusive results got no clear call from the source; some entries with a clear call stand among them for comparison. Calls come from the whole dose curve; as a rule, active = well fitted inhibition curve with a large enough effect; inconclusive = small, poorly fitted or top-dose-only effect; inactive = flat fitted curve, though single readings scatter. Where the call is inconclusive, the potency comes from a doubtful curve fit.
# Target: Microtubule-associated protein tau (Homo sapiens) (UniProt P10636)
# UniProt P10636, sequence (P10636 whole entry, looked up): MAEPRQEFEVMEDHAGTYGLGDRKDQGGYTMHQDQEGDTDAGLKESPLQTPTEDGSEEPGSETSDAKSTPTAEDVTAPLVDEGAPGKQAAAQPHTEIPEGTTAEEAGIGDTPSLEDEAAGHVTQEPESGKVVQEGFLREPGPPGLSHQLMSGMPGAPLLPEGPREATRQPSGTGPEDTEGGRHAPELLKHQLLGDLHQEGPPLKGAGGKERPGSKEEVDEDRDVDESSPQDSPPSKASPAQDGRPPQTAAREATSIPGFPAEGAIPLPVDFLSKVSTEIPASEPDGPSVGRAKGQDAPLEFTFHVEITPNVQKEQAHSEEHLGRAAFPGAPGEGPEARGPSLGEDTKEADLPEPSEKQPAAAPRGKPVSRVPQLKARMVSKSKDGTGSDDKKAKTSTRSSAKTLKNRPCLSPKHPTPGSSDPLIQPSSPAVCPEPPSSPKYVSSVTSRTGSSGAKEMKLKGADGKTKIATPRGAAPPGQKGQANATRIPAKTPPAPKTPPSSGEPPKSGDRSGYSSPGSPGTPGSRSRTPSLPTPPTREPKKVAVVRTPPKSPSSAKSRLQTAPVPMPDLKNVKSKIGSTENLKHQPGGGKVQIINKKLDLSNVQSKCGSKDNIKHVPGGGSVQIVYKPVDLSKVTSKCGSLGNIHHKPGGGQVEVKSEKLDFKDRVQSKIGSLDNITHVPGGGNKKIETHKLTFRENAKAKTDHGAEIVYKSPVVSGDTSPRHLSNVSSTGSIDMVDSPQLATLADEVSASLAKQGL
# Assay: qHTS for Inhibitors of Tau Fibril Formation, Thioflavin T Binding; note: nearly all actives have a fitted effect of over 55% in size
# Conditions: recombinant tau K18 P301L, heparin-induced fibrillization, ThT fluorescence; series mostly up to 57.4 µM; activity, negative = inhibition: at the top concentration
# Summary of the method: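 ThT emission at 510 nm, taken 1 hr after adding 30 uM dye, quantifies aggregates formed when 20 uM heparin acts on human tau K18 P301L for 6 hr at 37 C.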
# % is set by controls: 0 for no effect and ±100 for the full control effect; potency is the fitted concentration of half-maximal effect; tags give direction and shape of the fitted curve.
SMILES,"activity, negative = inhibition",Potency
COc1ccc2c(Sc3ccc(C)cc3)c(C(=O)NCc3ccc(F)cc3)[nH]c2c1,inactive: -0.505%,
CCOc1ccccc1-c1noc(CSc2nnc(-c3ccccc3)n2-c2ccc(F)cc2)n1,,"inconclusive: 22.4 µM [inhibitor, single point]"
Nc1c(C(=O)Nc2ccc(OC(F)(F)F)cc2)sc2nc(-c3ccncc3)ccc12,,"inconclusive: 2.82 µM [inhibitor, full curve]"
Cc1nn2c(=O)cc(COC(=O)Cc3ccccc3)nc2s1,inactive: 4.34%,
COc1ccccc1/C=N/NC(=O)c1ccc(Br)cc1,,"inconclusive: 3.16 µM [inhibitor, full curve]"
CSc1ccc(/C=C/C(=O)c2ccc(NC(C)=O)cc2)cc1,,"inconclusive: 7.08 µM [inhibitor, partial curve]"
COC(=O)C1=C(C)Nc2ncnn2C1c1ccc(OC(=O)c2ccccc2)cc1 (stereo not given),inactive: -6.47%,
O=C(O)CC1S/C(=N/N=C/c2ccc(-c3ccccc3[N+](=O)[O-])o2)NC1=O (stereo not given),,active: 2.24 µM
O=C(NC(=S)Nc1ccccc1N1CCOCC1)c1sc2ccccc2c1Cl,,"inconclusive: 17.8 µM [inhibitor, single point]"
COc1ccc(C(=O)CSc2ccc(-c3ccc(C)cc3)nn2)cc1,,"inconclusive: 10 µM [inhibitor, partial curve]"
CCOc1nc(NC2CCCCC2)nc(NC(C)(C)C)n1,inactive: -21.1%,
COc1ccc(OC)c(Nc2nc(-c3cccs3)cs2)c1,,"inconclusive: 14.1 µM [inhibitor, partial curve]"
CN(C)c1ccc(C(CNC(=O)c2ccccc2C(F)(F)F)N2CCOCC2)cc1 (stereo not given),,"inconclusive: 15.8 µM [inhibitor, single point]"
CC1CCCC(C)N1C(=O)CSc1nnc(-c2c[nH]c3ccccc23)o1 (stereo not given),inactive: -8.76%,
Cc1ccc(CNc2ccc3c(c2)OCO3)cc1,,"inconclusive: 35.5 µM [inhibitor, single point]"
c1ccc(CC2CCN(c3nc4ccccc4n4cnnc34)CC2)cc1,,"inconclusive: 11.2 µM [inhibitor, partial curve]"
CN1CCN(C(=O)C23CC4CC(C)(CC(C)(C4)C2)C3)CC1,,"inconclusive: 17.8 µM [inhibitor, single point]"
CC/C=C\C/C=C\C/C=C\C/C=C\C/C=C\C/C=C\CCC(=O)NC(C)C(=O)O (stereo not given),,"inconclusive: 31.6 µM [inhibitor, single point]"
O=c1c(-c2cc(-c3ccccc3)nc3c2COc2ccc(Cl)cc2-3)coc2ccc(F)cc12,inactive: 2.32%,
O=C(CSc1nnc(-c2ccncc2)o1)c1ccc2c(c1)OCCO2,,"inconclusive: 2.82 µM [inhibitor, full curve, poor fit]"

# — PubChem BioAssay AID1460 (National Center for Advancing Translational Sciences (NCATS), 2008)
